# ± gives the standard deviation of the averaged measurements. Over roughly 33,000 sequences, “E-score (dimensionless, -0.5 to 0.5)” has its median near -0.049; the highest 2% begin near 0.37. This is one part of the list.
# Tested on: T1, PmTbr T-box DNA-binding domain (GST fusion)
# T1 sequence: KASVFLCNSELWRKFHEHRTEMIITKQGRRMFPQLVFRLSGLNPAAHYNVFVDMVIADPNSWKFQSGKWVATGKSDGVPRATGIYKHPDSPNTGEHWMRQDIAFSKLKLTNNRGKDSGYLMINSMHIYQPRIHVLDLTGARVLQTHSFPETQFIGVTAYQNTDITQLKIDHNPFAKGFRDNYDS
# Experiment: PBM E-score of 8-mer (E-score (dimensionless, -0.5 to 0.5)); Tbr is Tbrain of the sea star Patiria miniata (Pm) or the sea urchin Strongylocentrotus purpuratus (Sp); higher = stronger binding preference; most listed sequences are background and not binding sites
# Conditions: the construct has about 5 more residues each side
# In short: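 Universal Agilent oligonucleotide arrays, made double-stranded by primer extension, were incubated with 200 nM GST-fused Tbr T-box DNA-binding domain in PBS (pH 7.5). The protein was expressed in BL21 E. coli at 20 °C and purified by glutathione affinity chromatography. After scanning and quantification, the Universal PBM Analysis Suite assigned an enrichment E-score to each ungapped 8-mer, averaged over duplicate arrays.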
row,Sequence,PBM E-score of 8-mer
1,TCGCGTCA,0.273 ± 0.061
2,GTCCATTA,-0.198 ± 0.018
3,CCCGGAGC,-0.0554 ± 0.069
4,CCCACTCC,-0.0608 ± 0.036
5,AAGCCACA,-0.0358 ± 0.085
6,CATCTCCG,-0.083 ± 0.045
7,GCACACCA,0.219 ± 0.03
8,ATTCTTCC,-0.171 ± 0.015
9,CCGCCATA,0.0556 ± 0.0067
10,CACAGCAC,0.183 ± 0.086
11,ACAAGTAC,0.059 ± 0.048
12,AATTTTCG,0.127 ± 0.11
13,AGGACAAG,-0.0489 ± 0.02
14,GGCTACAC,-0.00692 ± 0.072
15,GGATCAAA,-0.0675 ± 0.028
16,GACAGGTA,0.145 ± 0.026
17,AGGGAGAG,-0.0787 ± 0.011
18,AAAGACGA,-0.0689 ± 0.069
19,GGATCGCC,-0.236 ± 0.018
20,GAAGGGAC,-0.0175 ± 0.019
21,ATGTTTCA,-0.174 ± 0.074
22,CCGGGACC,-0.245 ± 0.023
23,AAGACCAT,-0.203 ± 0.042
24,GAGATCAA,-0.132 ± 0.04
25,CGTATATA,0.0791 ± 0.067

row,Sequence,PBM E-score of 8-mer
1,CTCACAAG,0.122 ± 0.017
2,CCTATAGA,-0.0752 ± 0.027
3,CCCCGAAG,-0.218 ± 0.1
4,AAGCTGAT,-0.145 ± 0.033
5,AGTTCTCC,-0.06 ± 0.059
6,ATCCATGG,-0.184 ± 0.01
7,CTAAATCC,-0.0121 ± 0.0011
8,GCTTGTAA,-0.0775 ± 0.029
9,CGGGATTC,-0.136 ± 0.032
10,AACGCTAA,0.151 ± 0.019
11,CTTTGGTC,-0.0786 ± 0.017
12,AGGTAGGC,0.00539 ± 0.0033
13,AGCACTAA,0.0398 ± 0.043
14,CACGTCGA,0.204 ± 0.022
15,CATTGAGG,-0.224 ± 0.021
16,CCTTGGTA,0.0017 ± 0.049
17,ATGAAATC,-0.224 ± 0.016
18,GGAGTACC,-0.068 ± 0.086
19,ACACCCGA,0.422 ± 0.012
20,GCTGAACC,-0.137 ± 0.028
21,AAGATTCC,-0.0403 ± 0.037
22,CGTGTATC,-0.109 ± 0.058
23,CCCCCTAC,-0.0624 ± 0.013
24,CCAATGAA,-0.149 ± 0.029
25,ATATAGTC,-0.0502 ± 0.042

row,Sequence,PBM E-score of 8-mer
1,ACCACTGA,-0.0716 ± 0.011
2,GGAACCGA,-0.105 ± 0.066
3,AGTATATG,0.0355 ± 0.073
4,CATTGACA,0.225 ± 0.027
5,CGCCCGGC,0.0104 ± 0.12
6,AGGGCGTG,0.21 ± 0.011
7,CCCTCGTA,-0.168 ± 0.031
8,AACGCCAT,0.216 ± 0.0046
9,CCAACGCG,0.136 ± 0.027
10,ATGACCAT,-0.23 ± 0.0083
11,CTGCATGA,-0.23 ± 0.063
12,AACGACGT,0.0423 ± 0.019
13,CACGAAGG,0.0208 ± 0.029
14,CCCCTAAC,-0.0953 ± 0.037
15,CCCGGCGA,-0.128 ± 0.02
16,CATCACAG,0.109 ± 0.038
17,CTATCTTC,-0.137 ± 0.02
18,GCAAACGA,-0.129 ± 0.024
19,ACGCGAGA,0.255 ± 0.0031
20,GAAGCGGA,0.0167 ± 0.00077
21,AGGACTAT,-0.222 ± 0.048
22,GAGCAAAC,-0.0719 ± 0.032
23,GTTCGAAA,-0.132 ± 0.091
24,AAGTTTTA,-0.0533 ± 0.12
25,ATAGGTTC,-0.0931 ± 0.17

row,Sequence,PBM E-score of 8-mer
1,AACCCCCT,-0.163 ± 0.023
2,CTTATGAA,-0.0966 ± 0.016
3,TACAGTAA,0.0205 ± 0.025
4,CGTTATCA,0.238 ± 0.012
5,ATTACATG,-0.0706 ± 0.076
6,ATGACGGG,-0.0303 ± 0.024
7,CATGGAAG,-0.321 ± 0.032
8,AAAGTAGC,0.0904 ± 0.058
9,AAGCAATC,-0.119 ± 0.034
10,ACTCTGTA,-0.143 ± 0.013
11,GTGGGGTA,-0.0459 ± 0.015
12,GAGGTTGC,0.157 ± 0.015
13,AGAACTCC,-0.168 ± 0.029
14,TGTTCGAA,-0.00594 ± 0.024
15,AACATGAA,0.032 ± 0.015
16,ACTCGTTG,0.0179 ± 0.028
17,GAAATCGA,-0.00937 ± 0.048
18,CCCTTCGA,-0.0585 ± 0.062
19,AGCTTCAA,-0.195 ± 0.05
20,AGAATCCT,-0.149 ± 0.076
21,TAGTGTCA,0.395 ± 0.027
22,AAGACAGC,-0.0516 ± 0.02
23,ATTTTAAC,0.0282 ± 0.089
24,ATTCACCC,-0.18 ± 0.042
25,TCCCGGAA,-0.194 ± 0.036

row,Sequence,PBM E-score of 8-mer
1,GGAATTAC,-0.218 ± 0.017
2,CTCGTTTC,-0.109 ± 0.076
3,CGAGGCAC,0.0808 ± 0.06
4,CCGTAATA,-0.236 ± 0.04
5,CGAGAGAA,0.102 ± 0.021
6,TACGTTGA,-0.0664 ± 0.069
7,CGCTCTCA,0.0857 ± 0.044
8,AATAGGAT,-0.144 ± 0.012
9,AGGTAGAG,-0.142 ± 0.064
10,CGGCAGTA,-0.128 ± 0.0017
11,ACAGCGAC,0.0143 ± 0.12
12,ATTCCCGG,-0.228 ± 0.032
13,TTAAGAAA,-0.165 ± 0.066
14,AAAAATAA,-0.104 ± 0.092
15,CACGTGGG,0.0958 ± 0.02
16,AGAAAATA,0.0323 ± 0.03
17,CCCGGTCC,-0.294 ± 0.037
18,GCTCAAGC,-0.268 ± 0.0031
19,GGCCCATA,-0.341 ± 0.028
20,AAGCTTGC,0.0506 ± 0.0071
21,GGACGCTA,-0.0248 ± 0.14
22,CCGTAGAA,-0.338 ± 0.034
23,ACCGCGAC,0.18 ± 0.0039
24,ACCTGCCT,0.0604 ± 0.069
25,CTAGATAG,0.00035 ± 0.063

row,Sequence,PBM E-score of 8-mer
1,ATACGGAA,-0.225 ± 0.03
2,CCGATCGA,-0.0184 ± 0.032
3,AGTCACGC,0.355 ± 0.0042
4,GATAGAAA,-0.0568 ± 0.013
5,TCCCAGGA,-0.149 ± 0.1
6,AAATCTTC,-0.18729 ± 2.8e-05
7,GAATTCCA,-0.0434 ± 0.077
8,AGAGAACC,-0.175 ± 0.069
9,ACTTGGGC,0.037 ± 0.1
10,CCTAAGAG,-0.395 ± 0.032
11,TGGCCCCA,-0.00775 ± 0.092
12,AGAGAACA,0.0218 ± 0.019
13,ACATAGCC,-0.215 ± 0.02
14,CCCGCTGA,0.118 ± 0.013
15,ATTCCCGC,0.0767 ± 0.0069
16,AGGAGCCG,0.161 ± 0.0058
17,CCCTATTC,-0.075 ± 0.0014
18,AGGCAGAG,-0.169 ± 0.12
19,ACTCCACC,-0.0966 ± 0.022
20,GGTGGTCA,0.0217 ± 0.017
21,TGTGGAAA,0.23 ± 0.03
22,ATCTTTTC,-0.0625 ± 0.018
23,AACTATTC,-0.0329 ± 0.04
24,CACCTCGC,0.458 ± 0.0073
25,AGTTATTG,-0.0545 ± 0.017

row,Sequence,PBM E-score of 8-mer
1,CAAGCGTA,-0.0541 ± 0.078
2,CTTAACAC,0.434 ± 0.013
3,CCCTGCAA,-0.202 ± 0.028
4,AAGCCCTA,-0.183 ± 0.034
5,ACGGGAGT,0.00023 ± 0.012
6,CACATTCC,0.198 ± 0.033
7,CCCATAGG,-0.206 ± 0.12
8,GTATCAAA,-0.23 ± 0.027
9,CCTTGGCA,0.075 ± 0.0069
10,ACGGTTGC,0.0738 ± 0.027
11,GTTATCGA,0.143 ± 0.045
12,ACTTAAAA,-0.137 ± 0.031
13,ATGCGCGC,0.159 ± 0.041
14,CTGGCCAA,-0.173 ± 0.011
15,CGGCTATC,-0.153 ± 0.031
16,AAGGGGCC,-0.0989 ± 0.015
17,AGTTACAG,-0.145 ± 0.015
18,ACACGGTC,0.0427 ± 0.034
19,CACGATAG,-0.0486 ± 0.033
20,CCAAATGA,-0.12 ± 0.077
21,CGAACGCC,0.124 ± 0.053
22,AGCGGAAT,-0.139 ± 0.0086

# Reference: the supplement of paper PMC4166925
